Laboratory results reported in the antibiotic and cytotoxicity screens of Wong et al. (2023).
The list shows a part of the results.

Tests used:
[1] = tested on: HSkMC (human skeletal muscle cells); assay: cytotoxicity call (relative viability < 0.9); details: 10 µM
[2] = tested on: HepG2; assay: cytotoxicity call (relative viability < 0.9); details: 10 µM
[3] = tested on: S. aureus RN4220; assay: growth inhibition call (relative growth <= 0.2); details: 50 µM

O=C(C[C@@H]1CC[C@@H]2[C@H](COC[C@H](O)CN2C(=O)c2ccncc2)O1)NC1CCC1
inactive: cytotoxicity call [1] | cytotoxicity call [2] | growth inhibition call [3]

CC(=O)O[C@H]1C[C@@H]2CC[C@@H]3[C@H](CC[C@@]4(C)[C@H]3C[C@H]([N+]3(C)CCCCC3)[C@@H]4OC(C)=O)[C@@]2(C)C[C@@H]1N1CCCCC1
inactive: cytotoxicity call [1] | cytotoxicity call [2] | growth inhibition call [3]

C[C@H]1CN([C@@H](C)CO)C(=O)c2cccc(NC(=O)Nc3ccccc3)c2O[C@@H]1CN(C)S(C)(=O)=O
inactive: cytotoxicity call [1] | cytotoxicity call [2] | growth inhibition call [3]

Cc1cn([C@H]2C[C@H](O)[C@@H](CO)O2)c(=O)[nH]c1=O
inactive: cytotoxicity call [1] | cytotoxicity call [2] | growth inhibition call [3]

C[C@@H]1CN([C@@H](C)CO)C(=O)c2cccc(NS(=O)(=O)c3cccs3)c2O[C@@H]1CN(C)Cc1ccc(Cl)c(Cl)c1
inactive: cytotoxicity call [1] | cytotoxicity call [2] | growth inhibition call [3]

COc1ccccc1S(=O)(=O)N(C)C[C@H]1Oc2ncc(Br)cc2C(=O)N([C@H](C)CO)C[C@H]1C
inactive: cytotoxicity call [1] | cytotoxicity call [2] | growth inhibition call [3]

C(=N\c1ccc2ccccc2c1)/Nc1ccc2ccccc2c1
inactive: cytotoxicity call [1] | cytotoxicity call [2] | growth inhibition call [3]

C[C@H](CO)N1C[C@H](C)[C@@H](CN(C)Cc2ccc(C(F)(F)F)cc2)OCCCC[C@H](C)Oc2ccc(NS(=O)(=O)c3ccc(F)cc3)cc2C1=O
inactive: cytotoxicity call [1] | cytotoxicity call [2] | growth inhibition call [3]

C[C@@H]1CN([C@H](C)CO)C(=O)c2cccc(NS(C)(=O)=O)c2O[C@H]1CN(C)S(=O)(=O)c1cccs1
inactive: cytotoxicity call [1] | cytotoxicity call [2] | growth inhibition call [3]

NCC[C@H]1CC[C@H](NC(=O)C2CC2)[C@H](CO)O1
inactive: cytotoxicity call [1] | cytotoxicity call [2] | growth inhibition call [3]
